According to PubChem BioAssay AID2546 (National Center for Advancing Translational Sciences (NCATS), 2010):
Where “and” joins values, the source holds several entries; their conditions need not be identical. Equal values may be shown once. Hit rate of the full screen: of about 310,000 compounds, about 11,000 (3.5%) were called active. This list was built around the results that the source calls inconclusive (neither active nor inactive); the mix of calls is not that of the screen. Calls follow the shape of the dose curve; as a rule, active = well fitted inhibition curve with a large enough effect; inconclusive = small, poorly fitted or top-dose-only effect, or effect the other way; inactive = flat fitted curve, though single readings scatter. No potency is given beside an inconclusive call; the fits are too rough.
% is scaled to controls: 0 for no effect and ±100 for the full control effect; potency is read from the fitted curve at half-maximal effect; tags tell the direction and shape of the fitted curve.

Experiment: VP16 counterscreen qHTS for inhibitors of ROR gamma transcriptional activity;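 also: Gal4-VP16 expression switched on by copper sulfate through the metallothionein promoter; nearly all actives have a fitted effect of over 50% in size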
Details: Drosophila S2 Gal4-VP16 UAS-luciferase, luminescence, 20 h; activity, negative = inhibition: at 53.6 µM (top of the series)
For `FC(F)(F)c1ccccc1NC(=S)Nc1cccc(Cl)c1`, the “activity, negative = inhibition” value was inactive: 8.88%.
With `C=CCC1(C#N)C(=S)NC2=C(C(=O)CC(C)(C)C2)C1c1ccc(Br)cc1` (stereo not given) the Potency was inconclusive [inhibitor, single point].
For `O=C(N/N=C/c1ccc(Br)s1)c1ccccc1[N+](=O)[O-]`, the Potency was active: 6.31 µM.
For `Cc1cc(S(=O)(=O)N2CCN=C2c2ccccc2)ccc1F`, the Potency was inconclusive [inhibitor, single point].
With `COc1ccc(-n2c(SCC(=O)C(C)(C)C)nc3c(sc(=S)n3-c3ccccc3)c2=O)c(OC)c1` the Potency was inconclusive [inhibitor, full curve, poor fit].
In the case of `C[C@H]1CN(C2CCCCC2)C(=O)[C@@H]1CC(=O)NCc1ccccc1`, the “activity, negative = inhibition” value is reported as inactive: 6.55%.
In the case of `OC(c1cccc(Cl)c1)c1nccc2ccccc12` (stereo not given), the Potency is reported as inconclusive [inhibitor, single point].
With `CCOCC(=O)Nc1c(C(=O)Nc2ccc3c(c2)OCCO3)oc2ccccc12` the “activity, negative = inhibition” value was inactive: -28.7%.
For `CC(=O)C1=C(C)NC(SCSc2ccccc2)=C(C#N)C1c1cccnc1` (stereo not given), the Potency was inconclusive [inhibitor, single point].
With `O=C(Cc1cccs1)N/N=C/c1ccccc1` the “activity, negative = inhibition” value was inactive: -7.02%.
With `CSc1nnc(NC(=O)c2ccc3c(c2)OCO3)s1` the Potency was active: 4.47 µM.
In the case of `O=C(NNC(=S)Nc1ccc(Br)cc1Cl)c1ccco1`, the Potency is reported as inconclusive [inhibitor, single point].
In the case of `Cc1ccc(S(=O)(=O)CC(=O)Nc2ccc3nc(C)sc3c2)cc1`, the “activity, negative = inhibition” value is reported as inactive: -0.0458%.
For `Cc1cc(CNC(=O)C(C)n2cc([N+](=O)[O-])cn2)c2ccccc2n1` (stereo not given), the “activity, negative = inhibition” value was inactive: -12.3%.
In the case of `CCOC(=O)c1c(NC(=O)CCl)sc(CN(C)C)c1-c1ccccc1`, the Potency is reported as inconclusive [inhibitor, single point].
For `O=C(Nc1ccc(Cl)cc1C(=O)Nc1ccncc1)c1ccco1`, the Potency was inconclusive [inhibitor, single point].
For `Cc1ccc(C(=O)NCc2ccncc2)cc1S(=O)(=O)N1CCCCC1`, the “activity, negative = inhibition” value was inactive: -1.31%.
For `C(=N\Nc1ccc2ccccc2n1)/c1ccc2c(c1)OCCO2`, the Potency was active: 2 µM.
For `CC1CC(C)(C)NC(=S)N1CCC(=O)N1c2ccccc2CC1C` (stereo not given), the Potency was active: 17.8 µM.
For `Clc1ccc(CSc2ccc(-c3ccccn3)nn2)cc1`, the Potency was inconclusive [activator, full curve].
For `COc1ccc(C(C)=O)cc1COC(=O)c1ccc(OCc2c(C)noc2C)cc1`, the Potency was inconclusive [inhibitor, single point].
In the case of `CNC(=O)C1CCN(C(=O)c2ccc(-c3ccccc3)cc2)CC1`, the Potency is reported as inconclusive [inhibitor, single point].
In the case of `Cc1ccc(Cn2c(C3CCCN3c3nc(C)cs3)nc3cc(C(F)(F)F)ccc32)cc1` (stereo not given), the Potency is reported as inconclusive [inhibitor, single point].
In the case of `CC(C)c1ccc(S(=O)(=O)c2cnc(=S)[nH]c2N)cc1`, the Potency is reported as inconclusive [inhibitor, single point].
For `CCCn1c(SCC(=O)Nc2cccc(S(=O)(=O)N3CCCC3)c2)n[nH]c1=O`, the “activity, negative = inhibition” value was inactive: -12.4%.
In the case of `COCCNC(=O)Cn1nc(-c2ccccc2C)ccc1=O`, the “activity, negative = inhibition” value is reported as inactive: -10%.
With `Cc1cc(C)n(CCN(C)Cc2nc(Cc3ccccc3F)no2)n1` the Potency was inconclusive [inhibitor, partial curve].
For `O=C(CSc1nnc(CNC(=O)c2ccccc2F)o1)c1ccc(Cl)cc1`, the Potency was inconclusive [inhibitor, single point].
With `c1ccc(C2=Nc3ccccc3SC2c2nc3ccccc3[nH]2)cc1` (stereo not given) the Potency was inconclusive [inhibitor, single point].
With `O=C(Nc1ccc2nc3n(c(=O)c2c1)CCCCC3)c1ccccc1[N+](=O)[O-]` the “activity, negative = inhibition” value was inactive: -6.97%.
For `CCOC(=O)Nc1ccc(C(=O)/C=C/c2ccccc2)cc1`, the Potency was inconclusive [inhibitor, single point].
In the case of `CSc1ccccc1OCc1cc(C(=O)N2CCCC(C)C2)no1` (stereo not given), the Potency is reported as inconclusive [activator, full curve, poor fit].
For `CN(CCO)c1ncnc2c1sc1nc(N3CCOCC3)c3c(c12)CCC3`, the “activity, negative = inhibition” value was inactive: 5.23%.
With `Cc1cccc(NC(=O)c2nc[nH]c2C(=O)N[C@@H](CC(C)C)C(=O)OC(C)(C)C)c1` the Potency was active: 10 µM.
In the case of `CNC(=S)N(CCCn1ccnc1)Cc1c(F)cccc1Cl`, the “activity, negative = inhibition” value is reported as inactive: -2.8%.
For `Cc1cc(C)n(-c2ccc(NC(=O)C3CCCCN3C(=O)c3sccc3C)cc2)n1` (stereo not given), the “activity, negative = inhibition” value was inactive: -4.34%.
With `COCCN(C(=S)Nc1cccc(C)c1)C(C)c1cccs1` (stereo not given) the Potency was inconclusive [inhibitor, single point].
For `Cc1ccc(C(C)NC(=O)c2cc3ccccc3oc2=O)cc1C` (stereo not given), the “activity, negative = inhibition” value was inactive: 12.6%.
For `O=C1c2ccccc2-c2ncnc3c(N4CCOCC4)cc(N4CCOCC4)c1c23`, the Potency was inconclusive [activator, single point].
In the case of `COCCn1c(SCC(=O)Nc2ccc(C(C)=O)cc2)nc2c([nH]c3ccccc32)c1=O`, the Potency is reported as inconclusive [inhibitor, single point].
For `Cc1ccc(C(=O)N(Nc2nc3ccccc3s2)C(=O)c2ccc(C)cc2)cc1`, the Potency was active: 11.2 µM.
With `CCSc1nc(N)c(C#N)c(-c2ccco2)c1C#N` the Potency was inconclusive [inhibitor, single point].
For `CCOC(=O)c1[nH]c2ccccc2c1NC(=S)Nc1cc(C)ccc1C`, the Potency was inconclusive [activator, single point].
With `O=C1CCC(=O)N1OCCOc1ccc(Cl)c2ccccc12` the Potency was inconclusive [activator, single point].
For `COc1cccc(-c2noc(C(C)n3nc(C)c([N+](=O)[O-])c3C)n2)c1` (stereo not given), the “activity, negative = inhibition” value was inactive: 3.83%.
With `Cc1cccc(-c2n[nH]c(=S)n2-c2ccccc2)c1[N+](=O)[O-]` the Potency was inconclusive [inhibitor, single point].
With `CCN(C(=O)CSc1nc2ccccc2n1CCc1ccccc1)C1CCS(=O)(=O)C1` (stereo not given) the Potency was inconclusive [inhibitor, single point].
With `O=C(CN(Cc1ccc(F)cc1)C(=O)CNS(=O)(=O)c1ccccc1)NCC1CCCO1` (stereo not given) the “activity, negative = inhibition” value was inactive: -0.648%.
With `N/C(COc1cccc(Cl)c1)=N\NS(=O)(=O)c1ccccc1` the Potency was inconclusive [inhibitor, partial curve, poor fit].
For `O=C(O)CSCC(=O)Nc1ccc(C2CCCCC2)cc1`, the Potency was active: 3.16 µM.
With `S=C(NCCc1cccc(Cl)c1)NC1CCCCC1` the Potency was active: 5.62 µM.
With `COc1ccc(NC(=O)CN2CCN(c3nc(-c4cccc(OC)c4)cs3)CC2)cc1` the Potency was inconclusive [inhibitor, partial curve, poor fit].
For `O=C(CCl)Nc1cccc2ncccc12`, the Potency was inconclusive [inhibitor, single point].
With `Cn1ccnc1SCC(=O)N1CCc2ccccc21` the Potency was inconclusive [activator, single point].
In the case of `COC(=O)C1=C(C)N(Cc2ccccc2)[C@]23O[C@](C(=O)OC)(C(=O)N2C1c1ccccc1)C1C(=O)N(c2ccccc2)C(=O)C13` (stereo not given in full), the activity, negative = inhibition is reported as inactive: -6.5% [at 10 µM] and inactive: 2.45% [at 10 µM].
With `Oc1c(C=C2N=c3ccccc3=N2)sc(=S)n1-c1ccc2ccccc2c1` the Potency was inconclusive [inhibitor, full curve, poor fit].
In the case of `COc1ccccc1Oc1ccc2c(c1)C(=O)N(c1cccc3ncccc13)C2=O`, the Potency is reported as active: 10 µM.
With `COc1cnc(-c2ccccn2)nc1Oc1ccc(F)cc1F` the Potency was inconclusive [inhibitor, single point].
With `CC(C)C(=O)N(c1cc2sc(=O)oc2c2ccccc12)S(=O)(=O)c1cccs1` the Potency was inconclusive [inhibitor, single point].
For `Cn1c(=O)n(C)c2cc(NS(=O)(=O)c3ccc(C(C)(C)C)cc3)ccc21`, the Potency was inconclusive [inhibitor, single point].
In the case of `OCCN1CCN(CC(O)COc2ccc(C34CC5CC(CC(C5)C3)C4)cc2)CC1` (stereo not given), the Potency is reported as inconclusive [inhibitor, single point].
With `COc1ccccc1NC(=O)c1ccc(NC(=O)CN(C)Cc2ccccc2F)cc1` the “activity, negative = inhibition” value was inactive: 0.0541%.
In the case of `COc1ccc(-c2nonc2NC(=O)c2oc3ccccc3c2C)cc1OC`, the “activity, negative = inhibition” value is reported as inactive: 3.8%.
With `Cc1ccc2nc(NCc3ccccc3)[nH]c2c1` the Potency was inconclusive [inhibitor, single point].
For `O=C(OCc1ccccn1)c1ccc(COc2ccc3ccccc3c2)o1`, the “activity, negative = inhibition” value was inactive: -7.01%.
With `CCCCC(=O)Nc1sc2c(c1C#N)CC(C)(C)OC2` the “activity, negative = inhibition” value was inactive: -2.78%.
In the case of `O=C(O)COn1c(-c2ccccc2)nc2ccc([N+](=O)[O-])cc21`, the Potency is reported as inconclusive [activator, single point].
With `COc1ccc(N2C(=O)C3CCCN3C2c2cc(OC)c(OC)c(OC)c2)cc1` (stereo not given) the “activity, negative = inhibition” value was inactive: -2.65%.
For `O=C(CCl)N1c2ccccc2CCc2ccccc21`, the Potency was inconclusive [inhibitor, single point].
With `O=c1c2cc(Br)ccc2nc(-c2ccccc2)n1O` the Potency was inconclusive [inhibitor, single point].
For `S=C(NC1CCCCC1)N1CCc2ccccc2C1`, the Potency was inconclusive [inhibitor, single point].
With `COCCNc1cc(-c2ccccc2C(F)(F)F)ncn1` the “activity, negative = inhibition” value was inactive: -8.49%.
For `O=C(Nc1ccc(Cl)c(Cl)c1)Nc1nnc(-c2ccncc2)s1`, the “activity, negative = inhibition” value was inactive: -15.1%.
For `CCc1nc(Nc2ccccc2OC)c2oc3ccccc3c2n1`, the “activity, negative = inhibition” value was inactive: -0.308%.
In the case of `O=C(CCCc1nc(-c2ccccc2)no1)NCc1cccnc1`, the Potency is reported as active: 5.62 µM.
